Data taken from doi:10.1101/2023.06.22.546067 (bioRxiv, 2023).
“And” between values parts separate entries of the source, which are not always exact repeats. Equal values may be shown once.

B1: transcription termination factor ρ^Y197A co-produced with His6-Psu^wt (pull-down prey) (enzyme)
chain: not shown
B2: transcription termination factor ρ variant P167L (ρ^P167L), purified (enzyme)
chain: not shown

Experiments:
[1] = target: T1, N-terminally His6-tagged Psu^wt (pull-down bait) (Enterobacteria phage P4, UniProt P05460 1-190); assay: pull-down
T1 sequence: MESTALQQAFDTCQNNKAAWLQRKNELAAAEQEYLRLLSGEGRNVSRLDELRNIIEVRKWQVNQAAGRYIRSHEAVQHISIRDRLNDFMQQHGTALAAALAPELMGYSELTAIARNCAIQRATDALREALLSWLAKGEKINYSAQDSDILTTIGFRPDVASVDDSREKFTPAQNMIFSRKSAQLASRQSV

[2] = target: the molecule itself; assay: cryo-EM structure

Binder	ρ pulled down (% of total, (E/(FT+W+E))x100) [1] [%]	stoichiometry N [2]
B1	~25	–
B2	–	7 and 6
